Assay results from the supplement of paper PMC3334620.
The full ranking holds about 33,000 sequences; the median of “E-score (-0.5 to 0.5)” is about -0.053, and the highest 2% start at about 0.37. This is one part of the list.

Each sequence was assayed against Hap1 (UniProt P0CE41) (assay: PBM E-score (8-mer binding enrichment) (E-score (-0.5 to 0.5)); higher = stronger / more preferred TF binding; most listed sequences are background and not binding sites). Details: protein concentration: 200 nM; construct: GST-DNA-binding domain.
Outline: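 Each ungapped eight-base word and its reverse complement, pooled, received an E-score from the Universal PBM Analysis Suite. Underlying scans, normalised with masliner, recorded fluorescent anti-GST bound to GST-tagged yeast transcription factors. These were applied at about 100-200 nM to universal all-10-mer Agilent arrays double-stranded by primer extension.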

UniProt P0CE41, sequence (P0CE41 whole entry, the tested form may be a part): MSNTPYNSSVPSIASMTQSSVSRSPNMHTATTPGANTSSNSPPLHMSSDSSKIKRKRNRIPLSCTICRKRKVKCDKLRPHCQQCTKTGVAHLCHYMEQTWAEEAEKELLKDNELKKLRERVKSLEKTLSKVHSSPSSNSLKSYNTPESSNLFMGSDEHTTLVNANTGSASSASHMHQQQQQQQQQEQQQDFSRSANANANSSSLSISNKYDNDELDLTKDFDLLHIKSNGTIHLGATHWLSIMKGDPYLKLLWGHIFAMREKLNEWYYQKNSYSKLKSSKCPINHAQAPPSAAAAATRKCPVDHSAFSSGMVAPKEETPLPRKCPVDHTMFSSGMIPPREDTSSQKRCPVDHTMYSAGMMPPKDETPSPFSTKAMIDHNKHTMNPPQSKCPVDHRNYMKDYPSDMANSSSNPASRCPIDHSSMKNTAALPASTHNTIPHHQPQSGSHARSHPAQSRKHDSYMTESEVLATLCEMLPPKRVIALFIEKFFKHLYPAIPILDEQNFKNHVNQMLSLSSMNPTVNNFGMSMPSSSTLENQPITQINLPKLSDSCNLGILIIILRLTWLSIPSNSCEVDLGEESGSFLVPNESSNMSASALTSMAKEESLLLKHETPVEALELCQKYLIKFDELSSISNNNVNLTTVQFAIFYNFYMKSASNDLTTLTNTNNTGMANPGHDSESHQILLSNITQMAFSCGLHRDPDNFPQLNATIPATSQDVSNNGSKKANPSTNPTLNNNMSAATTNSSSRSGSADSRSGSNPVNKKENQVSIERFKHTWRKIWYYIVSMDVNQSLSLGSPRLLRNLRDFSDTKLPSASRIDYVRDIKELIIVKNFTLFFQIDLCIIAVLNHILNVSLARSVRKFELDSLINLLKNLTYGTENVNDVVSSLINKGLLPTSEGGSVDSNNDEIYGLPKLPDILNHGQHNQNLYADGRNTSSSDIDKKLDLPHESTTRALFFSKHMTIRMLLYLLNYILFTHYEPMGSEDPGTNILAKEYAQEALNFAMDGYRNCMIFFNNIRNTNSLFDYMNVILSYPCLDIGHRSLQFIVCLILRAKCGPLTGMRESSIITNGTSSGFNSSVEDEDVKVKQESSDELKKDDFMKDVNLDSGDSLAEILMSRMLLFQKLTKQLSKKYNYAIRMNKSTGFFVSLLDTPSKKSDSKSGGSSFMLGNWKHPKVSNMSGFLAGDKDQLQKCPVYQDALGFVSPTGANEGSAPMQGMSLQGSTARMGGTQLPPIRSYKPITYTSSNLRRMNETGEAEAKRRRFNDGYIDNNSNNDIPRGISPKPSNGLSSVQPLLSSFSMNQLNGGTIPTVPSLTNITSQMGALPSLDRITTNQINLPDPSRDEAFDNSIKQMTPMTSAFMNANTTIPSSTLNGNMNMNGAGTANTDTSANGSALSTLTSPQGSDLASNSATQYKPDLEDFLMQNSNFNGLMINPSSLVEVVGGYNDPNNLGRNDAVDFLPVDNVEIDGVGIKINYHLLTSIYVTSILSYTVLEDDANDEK

Sequence | PBM E-score
CTCGGGGC | 0.335
AGAATCCC | 0.0916
CACAACAC | -0.156
CAGTCCGG | 0.364
ATTGCTCC | 0.264
CAGTGTGC | -0.139
ATAAGATA | 0.16
AGGATGGC | 0.0408
CAGAGTGA | -0.117
ACACTCCG | 0.2
AACTCGAT | 0.0465
AAGACCAC | -0.297
CTCATTGA | -0.115
GTAGCCAA | -0.152
CCAGAGAG | -0.208
CGCTGGCC | -0.0106
CGACAGTC | -0.159
AGTATAAG | -0.0688
CGAGAGTA | 0.127
AGCAGCTG | -0.167
AAACCGTT | 0.0886
GTAGGCGA | -0.174
AATTCGAT | 0.151
ACGTGGGA | -0.28
GTACTCAA | -0.108

Sequence | PBM E-score
AGGCTATC | -0.0678
AGAGGTTA | -0.0359
AATCACCG | 0.34
AATAGGAA | -0.0637
CCGCTATA | 0.27
TGCCGAAA | 0.303
CGATGCCC | 0.023
ATTGGAGA | 6e-05
AATTGGAA | -0.0476
CGGTGCGA | 0.14
ACAACTCA | -0.196
CCAGACGG | -0.0104
TCACATGA | -0.276
GAATACGA | 0.0822
GGGGACAA | 0.107
AACTACTG | -0.0821
CACGAGTA | -0.181
ATGGATAG | -0.0479
AGTTGCGC | 0.0784
ATAGACAA | -0.101
CCCCTGCC | -0.235
AACAGGGT | -0.0582
GATGAGGA | -0.0967
GGATTGAA | 0.125
AGGCGTTC | -0.0584

Sequence | PBM E-score
ATTCGAGC | -0.0132
TATAGACA | -0.189
GTATGAAA | -0.0897
GGGGGTAA | 0.0492
AAGTTAGT | -0.0152
ACAGGGTA | -0.125
AAGTAACG | 0.0942
GGGGGGGA | -0.158
TAGGTACA | -0.318
CAACATCA | -0.144
CCTGCGGA | 0.209
CGCTGCCA | 0.0394
GTCTTTGA | -0.209
CCACGATC | -0.101
ACGTTTAT | -0.195
AGCAGACG | 0.012
CGATAACG | 0.249
ACCAAAAT | 0.00352
CATGCATC | 0.0924
ACCCCGGC | 0.259
ACCCCCCC | -0.241
CTCAAGTA | -0.206
AGGCCAGC | -0.262
GATAACGC | 0.305
CAGATACA | -0.1

Sequence | PBM E-score
CCTCGCAC | 0.00768
TCTGACCA | -0.155
ACTCTGGG | -0.134
AGCGCTCG | 0.141
AGCCGGCG | 0.352
ACACGACA | -0.183
TCCGTAAA | 0.348
GTAGAGCA | -0.377
CAGGCCGA | 0.251
CCCTCGGA | 0.373
ACAACGAT | 0.0214
CTTCTCAC | -0.0697
CGACCCAG | -0.0655
CTTCGGAC | 0.406
AGACAAGC | -0.189
TGATACCA | -0.0747
GAGAGATC | -0.0834
AATTGGGT | -0.0265
TCGATGCA | -0.184
AAATCGAC | -0.003
AAACGCTC | 0.0499
CGTAGCAC | -0.131
ATCGCCCA | -0.0821
CTGACGTC | -0.156
ACATGGCT | -0.116

Sequence | PBM E-score
ATGGATTA | -0.222
CCTCATAA | -0.0823
AGTTGGTG | -0.106
GCGGCGAC | 0.269
CCACCGGA | 0.432
ACAACCAC | -0.0273
ATCATTGC | -0.148
CTAACATC | -0.0797
ACAAGGCT | -0.23
CCACCGCG | 0.203
TACGTCGA | -0.105
TACTCCGA | 0.375
CCAGTGAG | -0.0782
CCTGTCCA | -0.259
AATCGTCC | 0.162
CATTATAC | -0.00389
CTCATTCA | -0.0531
ATGAGCCC | -0.159
GCGTTGGA | 0.0179
CCAGCCTC | -0.124
CTTAAGAA | -0.104
GAGCCTGC | 0.00282
AAACGGAC | 0.229
TAAAGCCA | -0.0796
TCATGTCA | -0.293

Sequence | PBM E-score
CCAAGTCC | 0.0422
AAGGCGCC | 0.0149
CTGGGATC | 0.00427
ACGTCCTG | -0.211
CAGAATAG | -0.144
GCCCGGAA | 0.402
GAAACGCC | 0.238
AGTTTCGG | 0.345
TGCAGCAA | -0.0554
CCGGGGGA | 0.343
AGACAGGA | -0.133
GAGGCATC | -0.0843
ATCGCTGC | 0.222
ATGCAATG | -0.17
CAAGCTGA | -0.236
CTTCCTTA | -0.119
CCCTGTGC | -0.222
GATGTTGA | -0.173
GGGGTTTA | 0.266
ACCCTACT | -0.114
AAGGGGCA | -0.0967
ATTATGGA | 0.00681
AAATGGGT | -0.0173
CAAATCTC | 0.0956
CTGATCTC | -0.0864

Sequence | PBM E-score
GCACAACC | -0.0717
CAGTTGCC | -0.132
GCCTAAGA | -0.204
GAGTCCGA | 0.35
GTGACTAA | -0.0884
ACCCACGA | -0.0634
GAGGCTGA | -0.191
ATATCTCA | 0.108
GGCGAGTA | 0.0239
TACGAGTA | -0.072
AAGTAAGC | -0.0755
CCGAGGTC | 0.368
TCTCCTCA | -0.138
GGAGTCTA | -0.0797
ATCCTTAA | -0.224
CTTCCCAA | -0.197
GATATAAC | 0.215
GTGGGGGA | -0.194
ATCACCCG | 0.325
CGATTGGC | 0.0158
CTCGTCCC | -0.0345
CTCCAGCC | -0.0496
ATTATTTG | 0.0294
ACCTTTCG | 0.0668
GTTCTGGA | -0.231

Sequence | PBM E-score
TCCCGAAA | 0.285
AGTGGTAT | -0.1
AATCGCCA | -0.106
TCAAGGAA | -0.123
AAGAGTGC | -0.125
ACAAGTAT | -0.0894
AATTTGGT | 0.0361
ACCACCCA | -0.0991
ATGCTCCG | 0.344
AGACTTAC | -0.17
AATGGATG | -0.171
ACAGGTAA | -0.0927
ACACAACA | -0.134
AATGTTTC | 0.0303
CGACGTTA | 0.0906
ACTACGGC | 0.0924
GACGCGGC | 0.00827
CAAGCGGC | 0.144
ACTTGACA | -0.22
CTCTTTAC | 0.085
GTTGTCAA | -0.134
AGAAAACC | 0.0688
GGAATACC | 0.2
GCTATTAA | 0.00159
CCCGGTCA | 0.262

Sequence | PBM E-score
GCACATGA | -0.293
TCACTTAA | -0.167
ACCATTAG | -0.0367
GTAATACA | 0.00268
ATATTGAC | -0.0686
AAGCCCCT | -0.00622
GTCTCTGA | -0.0538
CGCTTTAA | 0.0294
AATGTCAC | -0.148
ATTCTGTC | -0.103
ACATAGCT | -0.179
ACATGGCC | 0.0386
ACAACCTA | -0.174
TTGACCAA | -0.0424
ACGAGTCG | -0.116
CGAAGGAG | 0.0326
CGTAACAA | 0.0657
ATAAACTA | 0.0419
GAGAGACC | -0.108
